Measured values as given in PubChem BioAssay AID1768 (National Center for Advancing Translational Sciences (NCATS), 2009).
The campaign covered roughly 270,000 compounds. About 620 (0.23%) were called active. Inconclusive results, whose numbers are uncertain, are shown with a selection of clear calls. Calls come from the whole dose curve; as a rule, active = well fitted inhibition curve with a large enough effect in the polarisation, with a control signal flat (not every such curve was filed as active); inconclusive = small, poorly fitted or top-dose-only effect, or effect the other way, or a change in a side signal; inactive = no such curve, though single readings can be large or run the other way; the % refers to the polarisation. Potencies of inconclusive entries are doubtful fits and often do not repeat. A note “side channel” means that the fit belongs to a control or component signal, not to the main read-out.

Molecular target: Menin (Homo sapiens) (UniProt O00255)
Test: qHTS Assay for Inhibitors Targeting the Menin-MLL Interaction in MLL Related Leukemias: Competition With Texas Red Labeled MLL-derived Mutant Peptide; for FP activity change, negative = inhibition: % of control where 0% means no effect
Conditions: fluorescence polarization; FP activity change, negative = inhibition: at 61.6 µM (top of the series)
Potency is the fitted concentration of half-maximal effect; tags give direction and shape of the fitted curve or compound fluorescence and quenching.

Sequence of UniProt O00255 (O00255 whole entry, looked up): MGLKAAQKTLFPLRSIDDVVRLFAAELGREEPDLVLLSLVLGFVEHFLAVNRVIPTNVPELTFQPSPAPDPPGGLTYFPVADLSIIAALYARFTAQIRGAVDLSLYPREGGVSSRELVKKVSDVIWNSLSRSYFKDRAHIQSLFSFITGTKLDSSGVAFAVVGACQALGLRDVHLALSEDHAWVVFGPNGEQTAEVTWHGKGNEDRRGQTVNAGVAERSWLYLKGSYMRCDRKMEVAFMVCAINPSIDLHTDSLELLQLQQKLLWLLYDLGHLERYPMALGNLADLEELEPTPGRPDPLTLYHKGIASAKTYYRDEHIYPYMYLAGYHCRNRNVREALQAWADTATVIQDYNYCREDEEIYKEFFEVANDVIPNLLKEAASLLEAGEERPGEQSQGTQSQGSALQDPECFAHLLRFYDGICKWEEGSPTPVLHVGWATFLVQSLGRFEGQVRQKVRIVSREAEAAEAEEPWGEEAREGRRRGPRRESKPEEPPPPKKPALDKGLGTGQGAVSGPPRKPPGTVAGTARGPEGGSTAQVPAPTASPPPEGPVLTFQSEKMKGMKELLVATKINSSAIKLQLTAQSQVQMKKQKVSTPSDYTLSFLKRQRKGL

Potency, inconclusive:
CN(CC1CCCO1)S(=O)(=O)c1ccc(C(=O)Nc2ccc([N+](=O)[O-])cc2)cc1 (stereo unspecified) 15.8 µM [quencher, side channel, partial curve], O=C(NC1CCN(S(=O)(=O)c2ccccc2)CC1)c1cccc(F)c1 39.8 µM [fluorescent, side channel, single point], Cc1ccc(NC(=O)COc2cccc(-n3cnnn3)c2)cc1[N+](=O)[O-] 10 µM [quencher, side channel, partial curve], Cc1cc(C)cc(N(C(=O)c2csnn2)C(C(=O)NC2CCCC2)c2ccccn2)c1 (stereo unspecified) 10 µM [inhibitor, partial curve, poor fit], Cc1cc(C)cc(-n2c(C)cc(/C=N/NC(=O)CSc3ncccn3)c2C)c1 14.1 µM [fluorescent, side channel, partial curve], CC(C)(C)NC(=O)CCN(/N=C/c1ccccc1)C1=NS(=O)(=O)c2ccccc21 17.8 µM [fluorescent, side channel, partial curve], Cc1ccc(C(=O)Nc2nc3ccccc3n3nnnc23)cc1 39.8 µM [fluorescent, side channel, single point], CCCn1c(C(C)Nc2nc(-c3ccc(Cl)c([N+](=O)[O-])c3)cs2)nc2cc(Cl)c(N3CCCCC3)cc21 (stereo unspecified) 17.8 µM [quencher, side channel, partial curve], CSc1cccc(NCc2ccc([N+](=O)[O-])cc2)c1 20 µM [quencher, side channel, partial curve], c1cncc(-c2nn3c(Cn4nnc5ccccc54)nnc3s2)c1 12.6 µM [inhibitor, partial curve], CCCCNC(=O)COC(=O)CCC(=O)c1ccc(Cl)cc1 35.5 µM [inhibitor, single point], Cc1cccc(-n2c(SCC(=O)O)nc3sc4c(c3c2=O)CCCC4)c1 15.8 µM [quencher, side channel, partial curve], CCOc1cc(C(=O)CSc2nnc(CNc3ccc(Cl)cc3)o2)ccc1NC(=O)CC 7.08 µM [inhibitor, single point], CC(C)(C)C(=O)N1CCN(c2ccnc3cc(Cl)ccc23)CC1 17.8 µM [inhibitor, partial curve, poor fit], O=C(CN1C(=O)CC(c2ccco2)Sc2ccccc21)NC1CCCCC1 (stereo unspecified) 2.82 µM [fluorescent, side channel, partial curve, poor fit], CCOc1ccc2nc(NC(=O)c3ccc(OCC4CCCO4)cc3)sc2c1 (stereo unspecified) 11.2 µM [quencher, side channel, partial curve], CC(=O)Nc1ccc(-c2csc(NCCc3ccccc3)n2)cc1 11.2 µM [quencher, side channel, partial curve], CN(C)CCCO/N=C(\c1ccccc1)c1ccncc1 28.2 µM [inhibitor, partial curve], CCOc1ccc2nc(NC(=O)Nc3cccs3)sc2c1 14.1 µM [quencher, side channel, partial curve], Cc1cccc(S(=O)(=O)C(C#N)c2nc3ccccc3nc2N2CCOCC2)c1 (stereo unspecified) 28.2 µM [quencher, side channel, partial curve], Cc1[nH]c2ccccc2c1/C=N/NC(=S)NCc1ccccc1 31.6 µM [quencher, side channel, single point], O=C(N/N=C/c1cccs1)c1ccc(-n2cccc2)cc1 17.8 µM [quencher, side channel, partial curve], O=C(Nc1nnc(S(=O)(=O)N2CCOCC2)s1)c1cccc(Br)c1 14.1 µM [quencher, side channel, partial curve], O=C1N/C(=N/O)S/C1=C/c1cccc([N+](=O)[O-])c1 20 µM [quencher, side channel, partial curve], C/C(=N\NC(=O)c1nnn(-c2nonc2N)c1CN(C)c1ccccc1)c1ccccc1O 4.47 µM [quencher, side channel, full curve], CCn1c(SCC(=O)Nc2cccnc2Cl)nnc1-c1ccccc1 7.94 µM [fluorescent, side channel, single point], CCn1c(=O)c(=O)[nH]c2cc(C(=O)N(C)Cc3ccc(OC)c(F)c3)ccc21 8.91 µM [fluorescent, side channel, partial curve], CCCCOc1ccc(C(C)NC(=O)CCS(=O)(=O)Cc2ccc(Cl)cc2)cc1 (stereo unspecified) 39.8 µM [inhibitor, single point], CCOC(=O)c1c(C)n(-c2ccc(C)cc2)c2ccc(OCC(O)CN3CCN(C)CC3)cc12 (stereo unspecified) 2.82 µM [fluorescent, side channel, partial curve], O=[N+]([O-])c1cc(C(F)(F)F)ccc1Sc1nccn1Cc1ccccc1 7.94 µM [inhibitor, full curve], CCCOc1c(Br)cc(C(N)=O)cc1OCC 3.55 µM [inhibitor, full curve, poor fit], Cc1ccc2[nH]c(=O)c(CN(CCCN(C)C)C(=S)NCCc3ccccc3)cc2c1 39.8 µM [inhibitor, single point], Cc1cc(Br)ccc1-n1[nH]c(C)c(C=Nc2cccc3nsnc23)c1=O 22.4 µM [quencher, side channel, partial curve], COc1ccc(N(C(=O)Cn2nnc(-c3ccccc3F)n2)C(C(=O)NCC2CCCO2)c2ccc(Cl)cc2)cc1 (stereo unspecified) 2.24 µM [fluorescent, side channel, full curve], CCNC(=S)N1CCn2cccc2C1c1ccc(F)cc1 (stereo unspecified) 39.8 µM [quencher, side channel, single point], Nc1cc([N+](=O)[O-])ccc1Nc1ccc(O)cc1 25.1 µM [quencher, side channel, partial curve], COc1cccc(/C=C2\C=C(c3ccc(C)cc3)OC2=O)c1OC(C)=O 31.6 µM [quencher, side channel, single point], C=CCn1c(N)c(C(=O)Nc2ccccc2)c2nc3ccccc3nc21 25.1 µM [quencher, side channel, partial curve], COc1cccc(-c2c(C(=O)N/N=C/c3sccc3C)nnn2-c2nonc2N)c1 39.8 µM [quencher, side channel, single point], O=C(O)c1cc(/C=C/c2ccc(N3CCOCC3)cc2)nc2ccccc12 25.1 µM [quencher, side channel, partial curve], CC(C)(C)c1ccc(C(=O)N2CCC(=O)N(C(COCc3ccccc3)Cc3ccccc3)CC2)cc1 (stereo unspecified) 1.78 µM [fluorescent, side channel, full curve], CN(C)c1ccc(-c2nc(Nc3ccncc3)c3ccccc3n2)cc1 11.2 µM [quencher, side channel, partial curve], Cc1nc(-c2ccc(S(=O)(=O)Nc3cccc(Cl)c3)cc2)co1 39.8 µM [inhibitor, single point], CCCCN(CC)S(=O)(=O)c1ccc(C(=O)Nc2nnc(-c3cccs3)o2)cc1 12.6 µM [quencher, side channel, partial curve], CCNc1ncc2nc(-c3cccc(C#N)c3)c(=O)n(C)c2n1 39.8 µM [inhibitor, single point], Cc1c(C(=O)O)c(C(=O)O)nc2ccc(N3CCOCC3)cc12 25.1 µM [inhibitor, single point], CC(=O)c1ccc(NC(=S)NCCc2cccc(Cl)c2)cc1 15.8 µM [quencher, side channel, partial curve]

FP activity change, negative = inhibition, inactive:
CC(C)[C@H](NC(=O)[C@@H](Cc1c[nH]c2ccccc12)NC(=O)[C@H](Cc1ccc(O)cc1)NC(=O)[C@@H](N)CC(=O)O)C(=O)N[C@H](Cc1c[nH]c2ccccc12)C(=O)N[C@H](Cc1c[nH]c2ccccc12)C(=O)N[C@@H](CCCCN)C(N)=O -8.12%, COC(=O)C1=C(C)N(Cc2ccccc2)[C@]23O[C@](C(=O)OC)(C(=O)N2C1c1ccccc1)C(C(=O)OC)=C3C(=O)OC (stereo partly specified) 1.04% [at 11.7 µM], CCCCCC(=O)/C=C/[C@H]1[C@H](O)CC(=O)[C@@H]1C/C=C\CCCC(=O)O 0.54%, COc1ccc(CNC(=O)CCCSc2ccccc2)cc1 -22.3%, O=C1CCC[C@@H](C2=CCCCC2=O)C1 21.8% [at 11.7 µM], CC(C)C[C@@H](N)C(=O)O 4.74%, COC(=O)C(Cc1ccccc1)NC(=O)c1ccc(C)cc1 (stereo unspecified) -7.43%, COc1ccccc1N1C(=O)C2CCC(c3ccccc3)CC2C1=O (stereo unspecified) 9.05%, COc1ccc([N+](=O)[O-])cc1NC(=O)c1ccccc1SC 18.4%
